pIC50: −log10 of the molar value.
Key:
[1] = tested on: CD19+ cells from CLL patients; test: mRNA expression in CD19+ CLL cells (RT-PCR); type: cell-based, human; settings: 0.5 μM lenalidomide and/or 10 μM compound, 48 hours
[2] = tested on: AKT (ser473), GSK3β (ser9); test: AKT and GSK3β phosphorylation in CD19+ CLL cells with lenalidomide (immunoblot); settings: 48 hours
CIIbeta = CIIbeta (Homo sapiens, UniProt O00750); test: InvitroGen Adapta kinase assay, CIIbeta; type: biochemical; settings: Class II PI3K
hVPS34 = hVPS34 (Homo sapiens, UniProt Q8NEB9); settings: read-out: hVPS34 IC50; Class III PI3K; InvitroGen Adapta assay
[3] = tested on: CLL cells with StromaNKTert; test: Viability / apoptosis of stroma-exposed CLL cells (Annexin V/PI); type: cell-based, human; settings: 24 hours
CLL cells = test: BH3 profiling (mitochondrial depolarization) of CLL cells; type: cell-based, human; settings: stroma-exposed; p=0.046 and p=0.047
[4] = tested on: CLL cells co-cultured with MSCs; test: CLL cells co-cultured with marrow stromal cells (MSC), DiOC6/PI viability; settings: 72 hours, co-culture with MSCs, 9 patient samples, mean (±SEM)
[5] = tested on: relapsed or refractory B-cell malignancies (NHL, CLL); test: Clinical study, combination with rituximab or bendamustine, 12 patients (Example 38); settings: compound 100 mg BID
LB cells = test: Subcutaneous LB human MM xenograft in SCID mice; type: in vivo; settings: for MM tumor growth versus control mice: 10 mg/kg (P<0.05) or 30 mg/kg (P<0.01) orally twice a day; for mean Overall Survival (OS): control 15 days
INA-6 cells = test: SCID-hu model, INA-6 cells in human bone chip (serum shuIL-6R); type: in vivo, mice; settings: 10 or 30 mg/kg daily

CIIbeta, sequence (O00750 whole entry): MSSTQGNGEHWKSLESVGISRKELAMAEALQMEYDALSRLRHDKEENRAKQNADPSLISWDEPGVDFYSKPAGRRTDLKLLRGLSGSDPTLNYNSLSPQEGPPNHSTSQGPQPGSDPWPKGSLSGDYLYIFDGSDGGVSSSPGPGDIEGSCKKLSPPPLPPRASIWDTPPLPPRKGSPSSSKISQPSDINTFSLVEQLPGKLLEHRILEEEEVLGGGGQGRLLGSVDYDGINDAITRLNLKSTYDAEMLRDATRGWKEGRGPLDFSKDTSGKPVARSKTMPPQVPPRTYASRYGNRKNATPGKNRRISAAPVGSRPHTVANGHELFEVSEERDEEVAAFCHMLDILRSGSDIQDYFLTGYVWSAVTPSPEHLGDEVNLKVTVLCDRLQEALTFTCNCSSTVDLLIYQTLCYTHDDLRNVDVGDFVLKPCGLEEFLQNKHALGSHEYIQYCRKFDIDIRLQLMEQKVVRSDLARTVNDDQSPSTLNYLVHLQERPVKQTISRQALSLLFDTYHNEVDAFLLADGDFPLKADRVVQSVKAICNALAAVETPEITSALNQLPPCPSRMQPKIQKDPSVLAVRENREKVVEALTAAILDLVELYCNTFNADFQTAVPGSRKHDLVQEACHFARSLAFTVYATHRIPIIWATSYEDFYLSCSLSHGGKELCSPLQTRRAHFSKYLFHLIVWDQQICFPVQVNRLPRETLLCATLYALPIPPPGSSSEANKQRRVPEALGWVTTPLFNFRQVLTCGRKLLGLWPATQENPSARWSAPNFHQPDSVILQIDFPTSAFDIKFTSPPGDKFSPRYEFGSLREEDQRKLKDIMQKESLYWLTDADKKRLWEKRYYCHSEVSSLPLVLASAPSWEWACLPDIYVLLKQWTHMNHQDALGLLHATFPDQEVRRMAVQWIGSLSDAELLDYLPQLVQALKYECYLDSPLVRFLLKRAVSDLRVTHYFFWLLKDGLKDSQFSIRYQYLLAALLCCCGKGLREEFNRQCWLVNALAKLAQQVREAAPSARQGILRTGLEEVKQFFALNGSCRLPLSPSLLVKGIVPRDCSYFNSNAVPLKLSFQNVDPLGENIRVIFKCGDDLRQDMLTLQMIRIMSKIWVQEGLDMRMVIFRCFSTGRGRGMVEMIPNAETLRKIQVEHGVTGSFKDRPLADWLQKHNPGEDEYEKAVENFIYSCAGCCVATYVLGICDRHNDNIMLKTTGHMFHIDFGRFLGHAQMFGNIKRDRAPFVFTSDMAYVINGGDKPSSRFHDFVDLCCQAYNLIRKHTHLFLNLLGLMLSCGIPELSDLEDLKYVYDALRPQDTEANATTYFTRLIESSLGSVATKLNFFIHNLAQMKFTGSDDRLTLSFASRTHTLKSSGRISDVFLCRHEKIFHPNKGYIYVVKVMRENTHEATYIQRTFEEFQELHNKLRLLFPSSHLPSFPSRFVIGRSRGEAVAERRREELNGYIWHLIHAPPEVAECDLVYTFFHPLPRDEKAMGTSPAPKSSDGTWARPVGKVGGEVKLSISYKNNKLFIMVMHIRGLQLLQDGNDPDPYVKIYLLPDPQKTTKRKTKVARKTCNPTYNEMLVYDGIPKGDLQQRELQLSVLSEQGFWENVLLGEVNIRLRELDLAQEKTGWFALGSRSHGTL
hVPS34, sequence (Q8NEB9 whole entry): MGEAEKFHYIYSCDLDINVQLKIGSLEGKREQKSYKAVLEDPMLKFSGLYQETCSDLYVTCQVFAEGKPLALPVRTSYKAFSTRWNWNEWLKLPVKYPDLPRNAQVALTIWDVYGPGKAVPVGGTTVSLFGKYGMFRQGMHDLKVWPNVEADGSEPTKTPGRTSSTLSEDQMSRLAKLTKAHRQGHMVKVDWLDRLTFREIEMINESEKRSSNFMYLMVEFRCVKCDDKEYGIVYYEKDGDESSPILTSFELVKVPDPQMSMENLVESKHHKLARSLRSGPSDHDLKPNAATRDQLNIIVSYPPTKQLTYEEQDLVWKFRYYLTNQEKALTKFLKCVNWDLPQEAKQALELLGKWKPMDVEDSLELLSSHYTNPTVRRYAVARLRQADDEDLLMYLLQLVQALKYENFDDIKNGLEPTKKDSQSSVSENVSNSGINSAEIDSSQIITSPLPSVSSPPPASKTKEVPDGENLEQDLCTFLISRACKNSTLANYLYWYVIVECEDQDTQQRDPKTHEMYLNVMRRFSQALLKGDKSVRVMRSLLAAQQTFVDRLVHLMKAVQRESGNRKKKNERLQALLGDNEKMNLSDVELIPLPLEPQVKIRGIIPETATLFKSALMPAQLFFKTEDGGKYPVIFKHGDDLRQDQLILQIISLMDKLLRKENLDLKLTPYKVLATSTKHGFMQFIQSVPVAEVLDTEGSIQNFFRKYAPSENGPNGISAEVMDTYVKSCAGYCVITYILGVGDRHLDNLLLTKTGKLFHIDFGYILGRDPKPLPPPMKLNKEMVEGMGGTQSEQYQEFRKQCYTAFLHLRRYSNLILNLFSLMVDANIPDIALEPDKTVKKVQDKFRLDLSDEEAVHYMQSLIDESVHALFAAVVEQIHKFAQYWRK

Nc1cccc2c1CN(C1CCC(=O)NC1=O)C2=O (centres unmarked) [lenalidomide]
VEGF transcription ([1]; N=13): increased transcriptional levels of VEGF in a subset (8 of 13) of patients
b-FGF transcription ([1]; N=15): increased transcriptional up-regulation of b-FGF in all patients
AKT activation / phosphorylation (ser473) with lenalidomide ([2]; 0.5 μM lenalidomide and/or 1 or 10 μM compound): up-regulates CD154 on CLL cells by activation of AKT
GSK3β phosphorylation (ser9) ([2]; 0.5 μM lenalidomide and/or 1 or 10 μM compound, N=4): increase in phosphorylation of GSK3β
phosphorylation of AKT when PI3K-δ knocked down ([2]; siRNA to PI3K-δ, 0.5 μM lenalidomide, N=3): unable to induce phosphorylation of AKT

Cn1c(=O)n(-c2ccc(C(C)(C)C#N)cc2)c2c3cc(-c4cnc5ccccc5c4)ccc3ncc21 [NVP-BEZ-235, reference compound]
pIC50 (CIIbeta): 8.52
pIC50 (hVPS34): 8.22

CN(C)CC[C@H](CSc1ccccc1)Nc1ccc(S(=O)(=O)NC(=O)c2ccc(N3CCN(Cc4ccccc4-c4ccc(Cl)cc4)CC3)cc2)cc1[N+](=O)[O-] [ABT-737, reference compound]
stroma-mediated resistance (CLL cell viability) ([3]; two patients, ABT-737 100 nM, compound I 10 μM): profound stroma-mediated resistance
ABT-737 concentration overcoming resistance in the presence of StromaNKTert ([3]; with or without compound I): ≥ 10 nM
mitochondrial depolarization in CLL cells treated with compound I (CLL cells): induced significantly more mitochondrial depolarization

Cn1c(CCCC(=O)O)nc2cc(N(CCCl)CCCl)ccc21 [bendamustine, reference compound]
CLL cell viability relative to untreated controls [4]: 60%
safety and tolerability [5]: dose reduction of bendamustine due to hiccups

CC(Nc1ncnc2[nH]cnc12)c1nc2ccc(F)cc2c(=O)n1-c1ccccc1 (centres unmarked) [Compound II, 2-(1-(9H-purin-6-ylamino)ethyl)-6-fluoro-3-phenylquinazolin-4(3H)-one]
MM tumor growth versus control mice (LB cells): significantly reduced MM tumor growth
MM tumor growth versus control mice (LB cells; listed as compound II): strong In vivo activity on the human xenograft tumor
mean Overall Survival (OS) (LB cells; 10 mg/kg, 95% CI 15-34 days): 23 days
p-Akt and p-PDK-1 in tumor tissue (LB cells; 30 mg/kg): significantly inhibited p-Akt and p-PDK-1
mean Overall Survival (OS) (LB cells; 30 mg/kg, 95% CI 27-49 days): 32 days
CD31 positive cells and microvessel density (LB cells; 30 mg/kg, p<0.01): significantly decreased
body weight (LB cells; mouse, in vivo): did not affect body weight
tumor growth (serum shuIL-6R) (INA-6 cells): significantly inhibited tumor growth compared with vehicle control
